This is an account of results in PubChem BioAssay AID1508624 (National Center for Advancing Translational Sciences (NCATS), 2021).

About 120 (0.25%) of roughly 48,000 compounds were called active. Roughly 4% stayed inconclusive and do not appear here. The call rests on the fitted dose curve; in most records, active means well fitted activation curve with a large enough effect; inconclusive means small, poorly fitted or top-dose-only effect, or another doubt; inactive means no such curve, though single readings can be large or run the other way. Some of the results follow.

This assay can be described thus: Primary qHTS for Identification of Small Molecule Activators of Huntingtin-Antisense Promoter Activity. Further: nearly all actives have a fitted effect of over 55% in size. As to conditions: HEK293 HTT-AS promoter firefly luciferase reporter, 24 h; series mostly up to 57.5 µM; activity change, positive = activation: at the top concentration. Summed up:
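Quantitative HTS used concentration series of up to 57.5 uM final on HEK293 luciferase reporter cells, 24 h at 37 degrees C. Readout was Dual-Glo firefly luminescence.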
On the technique in general: Quantitative high-throughput screening tests each substance at several concentrations.
With `Cc1ccc(-c2cc(C(=O)NCCc3ccccc3)c3ccccc3n2)cc1C`, the “activity change, positive = activation” value is inactive: 35.2%.

As to `Cc1ccccc1NC(=O)Cn1c(=O)n(Cc2ccco2)c(=O)c2cccnc21`, the “activity change, positive = activation” value is inactive: -9.05%.

As to `CC(C)c1ccc(NC(=O)CNC(=O)Cn2ccc3ccccc3c2=O)cc1`, the “activity change, positive = activation” value was inactive: -12.8%.

Regarding `CCc1ccc2c(c1)c(=O)c(C(=O)c1ccc(C)cc1)cn2CC(=O)Nc1ccc2c(c1)OCCO2`, the “activity change, positive = activation” value was inactive: -19.1%.

For the compound `Cc1ccc(NC(=O)Cn2c(=O)nc(-c3ccccc3F)c3cc(Cl)ccc32)c(Br)c1`, the “activity change, positive = activation” value was inactive: -39.2%.

Take `CCOC(=O)c1ccccc1NC(=O)CSc1ncc2c(n1)-c1ccccc1N(CC)S2(=O)=O`: the “activity change, positive = activation” value was inactive: -13.6%.

On to `NS(=O)(=O)Cc1noc2ccccc12`, for which the “activity change, positive = activation” value was inactive: -2.56%.

`CCC(C)n1c(=N)c(S(=O)(=O)c2ccccc2)cc2c(=O)n3ccccc3nc21` (stereo not drawn): the “activity change, positive = activation” value is inactive: -12.2%.

As to `Cc1nn(C)c2c1c(-c1ccccc1)cc(=O)n2CC(=O)NC(C)(C)C`, the “activity change, positive = activation” value is inactive: -31.5%.

Turning to `COc1cc2nc(SCc3ccc(F)cc3)n3nc(CCn4c(C)nc5ccccc54)nc3c2cc1OC`, the “activity change, positive = activation” value is inactive: -5.81%.

For the compound `CCOc1ccc(S(=O)(=O)N(CC(=O)NCCSCc2ccccc2)c2ccccc2)cc1`, the “activity change, positive = activation” value is inactive: -5.68%.

With `CCOc1ccccc1NC(=O)N1CCN(Cc2cc(=O)n3nc(-c4ccc(C)cc4)sc3n2)CC1`, the “activity change, positive = activation” value was inactive: -8.06%.

`CSc1cccc(NC(=O)c2ccc3c(c2)c(C)c(C)n3Cc2ccc(F)cc2)c1`: the “activity change, positive = activation” value is inactive: -25.6%.

In the case of `COc1ccc(CCCc2nnc(SCC(=O)Nc3ccc(C)c(C)c3)o2)cc1`, the activity change, positive = activation is inactive: 11.6% [at 11.5 µM, percent change from vehicle, -100% = no light].

With `CCc1ccc(S(=O)(=O)c2cn(C)c3cc(N4CCN(CC)CC4)c(F)cc3c2=O)cc1`, the “activity change, positive = activation” value is inactive: -10.1%.

On to `Cc1cc(C)c2c(CC(=O)Nc3nnc(CC(C)C)s3)coc2c1`, for which the “activity change, positive = activation” value is inactive: -6.47%.

For the compound `CC(C)NS(=O)(=O)c1ccc(OCC(=O)N2CCN(c3ccccc3F)CC2)cc1`, the “activity change, positive = activation” value is inactive: -20.2%.

Turning to `CN(C)CCN(Cc1ccc(Cl)cc1)c1ccccn1`, the “activity change, positive = activation” value was inactive: -31.8%.

In the case of `O=C(c1ccc(CS(=O)c2ccccc2Cl)o1)N1CCN(c2ccccc2F)CC1` (stereo not drawn), the “activity change, positive = activation” value was inactive: -37.1%.

Take `Cc1ccc(CN2CCC(CNC(=O)Nc3c(C)cccc3C)C2)cc1` (stereo not drawn): the “activity change, positive = activation” value is inactive: -16.6%.

In the case of `COc1ccccc1-c1c(C)nn2c(C(F)(F)F)cc(-c3ccccc3)nc12`, the “activity change, positive = activation” value is inactive: -8.67%.

As to `CCC(=O)Nc1cccc(-c2cn3c(C)csc3n2)c1`, the “activity change, positive = activation” value was inactive: 12.2%.

Regarding `O=C(CCC1N=C2c3ccccc3N=C(SCc3cccc(Cl)c3)N2C1=O)NCc1cccs1` (stereo not drawn), the “activity change, positive = activation” value is inactive: 4.86%.

As to `COc1cccc(C(=O)N(Cc2cccc(Cl)c2)Cc2ccco2)c1`, the “activity change, positive = activation” value was inactive: -28.4%.

Regarding `CC(C)(C)c1ccc(OCC(=O)Nc2c(C(=O)c3ccc(F)cc3)oc3ccccc23)cc1`, the “activity change, positive = activation” value was inactive: -3.5%.

Regarding `COc1cc(C(=O)NCCSc2c(-c3ccccc3)[nH]c3ccccc23)cc(OC)c1OC`, the “activity change, positive = activation” value was inactive: -41.2%.

With `CC1CCN(S(=O)(=O)c2ccc3nc(N4CCN(c5ccccc5)CC4)ccc3c2)CC1`, the “activity change, positive = activation” value was inactive: -1.55%.

As to `Oc1c(C(c2ccc(Cl)cc2)N2CCOCC2)sc2nc(-c3ccco3)nn12` (stereo not drawn), the “activity change, positive = activation” value was inactive: 1.33%.

Regarding `Fc1cccc(CSc2nc(NCCc3ccccc3)c3ccccc3n2)c1`, the “activity change, positive = activation” value is inactive: -23%.

Consider `COc1ccccc1OCC(=O)Nc1cc(-c2ccc(C)cc2)no1`, for which the “activity change, positive = activation” value was inactive: -0.295%.

Regarding `CC(=O)c1cc(-c2ccc(F)cc2)n(CC(=O)NCc2ccc(C)cc2)c1C`, the “activity change, positive = activation” value is inactive: -19.2%.

As for `COc1cc(NS(=O)(=O)c2cccs2)cc(OC)c1`, the “activity change, positive = activation” value was inactive: -14.5%.

Turning to `Cn1c(=O)c(-c2c(Cl)cccc2Cl)cc2cnc(Nc3cccc(C(=O)O)c3)nc21`, the “activity change, positive = activation” value was inactive: 7.24%.

On to `COc1cc(Cl)c(C)cc1NC(=O)NC1COc2ccccc2C1` (stereo not drawn), for which the “activity change, positive = activation” value is inactive: -23.3%.

Regarding `CCCNC(=O)Cn1c(=O)cc(C)c2c(C)nn(-c3cccc(F)c3)c21`, the “activity change, positive = activation” value was inactive: -18.9%.

Turning to `CCc1ccc(-c2ccc3nnc(SCC(=O)Nc4cccc(C(C)=O)c4)n3n2)cc1`, the “activity change, positive = activation” value is inactive: -1.48%.

As for `Cc1onc(-c2ccccc2)c1C(=O)Cl`, the “activity change, positive = activation” value was inactive: -1.93%.

For the compound `COc1ccc(CCNC(=O)Cn2c(-c3cccs3)cc3cc(F)ccc32)cc1OC`, the “activity change, positive = activation” value is inactive: -41.1%.

Consider `COc1ccc(NC(=O)c2oc3ccccc3c2NC(=O)c2cc(OC)c(OC)c(OC)c2)cc1`, for which the “activity change, positive = activation” value was inactive: -27.2%.

For the compound `COc1ccc(CCNC(=O)CN2C(=O)COc3ccccc32)cc1OC`, the “activity change, positive = activation” value is inactive: -12.5%.

Regarding `COc1cccc(CNC(=O)c2ccc(CS(=O)c3ccccc3)o2)c1` (stereo not drawn), the “activity change, positive = activation” value is inactive: -21.6%.

Consider `Cc1cccc(Oc2nc3c(c(=O)n(C)c(=O)n3C)n2C)c1C`, for which the “activity change, positive = activation” value is inactive: 6.21%.

With `CCOC(=O)N1CCN(C(=O)c2cnn(-c3cccc(F)c3)c2-n2cccc2)CC1`, the “activity change, positive = activation” value was inactive: -10.8%.

For the compound `CCc1ccccc1NC(=O)C(CCSC)NS(=O)(=O)c1ccc2c(c1)oc(=O)n2C` (stereo not drawn), the “activity change, positive = activation” value is inactive: -4.33%.

On to `N#Cc1c(-c2ccccc2)cc(-c2ccccc2)nc1SCC(=O)Nc1ccc(Cl)cc1`, for which the “activity change, positive = activation” value was inactive: -13.1%.

In the case of `Cc1ccccc1-c1nn2c(=O)cc(CN3CCN(C(=O)c4ccccc4Br)CC3)nc2s1`, the “activity change, positive = activation” value was inactive: -11.9%.

`Cc1cc(C)cc(OCC(=O)NCC2(N3CCOCC3)CCCCC2)c1`: the “activity change, positive = activation” value is inactive: -18.1%.

Regarding `COc1ccc([C@@H]2Sc3ccccc3N(CCN(C)C)C(=O)[C@@H]2OC(C)=O)cc1`, the “activity change, positive = activation” value is inactive: -10.7%.
